Data on 19 molecules can be found in the supplement of paper PMC10369915.

To fix the notation:
B1: SGCE_Y38 (peptide)
chain: FLLTVYSIFSK
B2: SGSH_Y240_R245H (peptide)
chain: DLAAQYTTVGH
B3: SGMS2_Y59_YF (peptide)
chain: KKFPDYIQIAM
B4: SF3B1_Y570_R568H (peptide)
chain: DLVHPYVHKIL
B5: SERPINB1_Y84 (peptide)
chain: KRGASYILKLA
B6: SERPINA7_Y40_S43T (peptide)
chain: PNATLYKMTSI
B7: SH3PXD2B_Y45 (peptide)
chain: AIYRRYSKFFD
B8: SHH_Y253_V254M (peptide)
chain: AKKVFYMIETR
B9: SGSH_Y174_D179N (peptide)
chain: RPFFLYVAFHN
B10: SHC1_Y315 (peptide)
chain: LRFKQYLRNPP
B11: SFI1_Y164_Q167H (peptide)
chain: QTWKTYVRHQQ
B12: SET_Y119_H118Y (peptide)
chain: EEALYYLTRVE
B13: SH3PXD2B_Y45_R43W (peptide)
chain: AIYWRYSKFFD
B14: SH2D1A_Y29_D33Y (peptide)
chain: GLDGSYLLRYS
B15: SGSH_Y89_H84Y (peptide)
chain: YQNGMYGLHQD
B16: SGMS2_Y24_T21M (peptide)
chain: DPMNTYARPAE
B17: SHB_Y297_G293S (peptide)
chain: KSIQLYDTPYE
B18: SHB_Y297_G293S_YF (peptide)
chain: KSIQLYDTPFE
B19: SGMS2_Y59_I62S_YF (peptide)
chain: KKFPDYIQSAM

This is one part of the list. No stated cut-off is given here; in the data, active = 3.2 or more and inactive = the rest. Most of these values are background signal.
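Further: displayed peptides selected on beads carrying the immobilized SH2 domain, with library peptides lacking any tyrosine serving as negative controls.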

For the first assay, the target named is SHP2 C-SH2 domain E139D. Description: enrichment score (SH2-bound / input frequency) (ratio); bacterial display of known human phosphotyrosine sites (pTyr-Var adds point mutants) read by sequencing; higher = stronger binding; tyrosines were phosphorylated by kinases first. Conditions: peptide library: pTyr-Var.
As to B1, the enrichment score is inactive: 2.47.

As to B2, the enrichment score is inactive: 0.777.

Regarding B3, the enrichment score is inactive: 1.29.

Consider B4, for which the enrichment score is inactive: 1.46.

Turning to B5, the enrichment score is inactive: 2.77.

B6: the enrichment score is inactive: 0.565.

With B7, the enrichment score was inactive: 0.24.

With B8, the enrichment score was inactive: 3.

Regarding B9, the enrichment score was inactive: 0.322.

For B10, the enrichment score is inactive: 0.71.

For the molecule B11, the enrichment score was inactive: 1.1.

Take B12: the enrichment score is inactive: 1.2.

Consider B13, for which the enrichment score was inactive: 0.887.

On to B14, for which the enrichment score is inactive: 0.788.

Regarding B15, the enrichment score was inactive: 0.865.

B16: the enrichment score was inactive: 0.755.

B17: the enrichment score is inactive: 1.13.

B18: the enrichment score was inactive: 0.967.

Consider B19, for which the enrichment score was inactive: 1.03.

The next assay deals with SHP2 C-SH2 domain wild-type. Described as above. The conditions noted are these: peptide library: pTyr-Var.
On to B1, for which the enrichment score was inactive: 2.16.

Turning to B2, the enrichment score was inactive: 1.52.

Take B3: the enrichment score was inactive: 1.03.

For B4, the enrichment score is inactive: 1.37.

For B5, the enrichment score was inactive: 2.16.

As to B6, the enrichment score is inactive: 0.651.

In the case of B7, the enrichment score was inactive: 0.325.

Take B8: the enrichment score is active: 3.28.

With B9, the enrichment score is inactive: 0.564.

For B10, the enrichment score was inactive: 0.599.

As for B11, the enrichment score is inactive: 1.17.

As for B12, the enrichment score is inactive: 1.09.

Take B13: the enrichment score was inactive: 1.02.

For B14, the enrichment score is inactive: 0.831.

B15: the enrichment score is inactive: 0.795.

As for B16, the enrichment score is inactive: 0.553.

In the case of B17, the enrichment score was inactive: 0.831.

On to B18, for which the enrichment score was inactive: 0.856.

On to B19, for which the enrichment score was inactive: 0.847.

In another assay the target is SHP2 N-SH2 domain L43F. The description is as above. Conditions: peptide library: pTyr-Var.
Turning to B1, the enrichment score was inactive: 2.18.

With B2, the enrichment score is inactive: 1.05.

For B3, the enrichment score was inactive: 1.12.

Take B4: the enrichment score was inactive: 1.08.

Consider B5, for which the enrichment score is inactive: 2.34.

Regarding B6, the enrichment score is inactive: 0.713.

Take B7: the enrichment score was inactive: 0.343.

As for B8, the enrichment score is inactive: 2.89.

As for B9, the enrichment score was inactive: 0.408.

Turning to B10, the enrichment score was inactive: 0.646.

For B11, the enrichment score is inactive: 1.13.

Turning to B12, the enrichment score was inactive: 1.32.

Turning to B13, the enrichment score is inactive: 1.03.

Regarding B14, the enrichment score was inactive: 0.732.

For B15, the enrichment score was inactive: 0.829.

On to B16, for which the enrichment score was inactive: 0.558.

Turning to B17, the enrichment score is inactive: 0.975.

On to B18, for which the enrichment score is inactive: 1.15.

On to B19, for which the enrichment score is inactive: 0.963.

A further assay has as its target SHP2 N-SH2 domain T42A. The assay is described as above. Conditions: peptide library: pTyr-Var.
In the case of B1, the enrichment score was inactive: 2.07.

Regarding B2, the enrichment score was inactive: 2.01.

Take B3: the enrichment score was inactive: 0.967.

For B4, the enrichment score was inactive: 1.28.

B5: the enrichment score was inactive: 1.85.

Regarding B6, the enrichment score was inactive: 0.695.

With B7, the enrichment score is inactive: 0.338.

As for B8, the enrichment score is inactive: 2.46.

For the molecule B9, the enrichment score was inactive: 0.374.

In the case of B10, the enrichment score was inactive: 0.696.

Regarding B11, the enrichment score was inactive: 1.2.

In the case of B12, the enrichment score is inactive: 0.976.

As to B13, the enrichment score was inactive: 1.

Take B14: the enrichment score is inactive: 0.941.

For B15, the enrichment score was inactive: 0.711.

For the molecule B16, the enrichment score is inactive: 0.574.

With B17, the enrichment score is inactive: 0.6.

For B18, the enrichment score is inactive: 0.79.

Turning to B19, the enrichment score was inactive: 0.98.

For a further assay, the target named is SHP2 N-SH2 domain T52S. The description is as above. The conditions noted are these: peptide library: pTyr-Var.
With B1, the enrichment score was inactive: 2.05.

As for B2, the enrichment score is inactive: 1.09.

In the case of B3, the enrichment score was inactive: 1.42.

As for B4, the enrichment score is inactive: 1.07.

Take B5: the enrichment score is inactive: 2.29.

In the case of B6, the enrichment score is inactive: 0.569.

In the case of B7, the enrichment score is inactive: 0.329.

B8: the enrichment score was inactive: 2.82.

As for B9, the enrichment score is inactive: 0.358.

For the molecule B10, the enrichment score is inactive: 0.67.

As for B11, the enrichment score is inactive: 1.78.

For B12, the enrichment score is inactive: 1.08.

With B13, the enrichment score was inactive: 0.707.

For B14, the enrichment score is inactive: 1.11.

For B15, the enrichment score is inactive: 0.818.

Take B16: the enrichment score is inactive: 0.496.

For B17, the enrichment score is inactive: 0.781.

B18: the enrichment score is inactive: 1.

Turning to B19, the enrichment score is inactive: 0.845.

For a further assay, the target named is SHP2 N-SH2 domain wild-type. The description is as above. Conditions: peptide library: pTyr-Var.
Consider B1, for which the enrichment score is inactive: 2.07.

With B2, the enrichment score is inactive: 0.757.

For the molecule B3, the enrichment score is inactive: 1.01.

For B4, the enrichment score was inactive: 1.45.

As for B5, the enrichment score was inactive: 2.18.

As for B6, the enrichment score was inactive: 0.729.

Take B7: the enrichment score is inactive: 0.245.

For B8, the enrichment score is inactive: 2.99.

As for B9, the enrichment score is inactive: 0.416.

Regarding B10, the enrichment score is inactive: 0.57.

Turning to B11, the enrichment score was inactive: 1.16.

For the molecule B12, the enrichment score is inactive: 0.974.

Regarding B13, the enrichment score is inactive: 1.12.

On to B14, for which the enrichment score is inactive: 0.947.

On to B15, for which the enrichment score was inactive: 0.662.

Consider B16, for which the enrichment score was inactive: 0.597.

On to B17, for which the enrichment score was inactive: 0.835.

Regarding B18, the enrichment score is inactive: 1.05.

With B19, the enrichment score is inactive: 1.03.
